Common to all, as to assay: Primary Screen for Target Class Profiling of Small Molecule Inhibitors of Methyltransferases
In test [1] the target is Glycine N-methyltransferase (Homo sapiens) (UniProt Q14749). To be noted: purified enzyme, MTase-Glo SAH luminescence; measured here: GNMT inhibition; at 40 µM; stronger effect = lower value. The procedure, abridged: (§1)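 Each enzyme was assayed with SAM and its substrate. SAH formation detected by MTase-Glo luminescence; single-point 40 uM screen[…].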
In test [2] the target is Guanidinoacetate N-methyltransferase (Homo sapiens) (UniProt Q14353). Particulars: purified enzyme, MTase-Glo SAH luminescence; measured here: GAMT inhibition; at 40 µM; stronger effect = lower value. The procedure, abridged:
as §1

The target of test [3] is Histamine N-methyltransferase (Homo sapiens) (UniProt P50135). Particulars: purified enzyme, MTase-Glo SAH luminescence; measured here: HNMT inhibition; at 40 µM; stronger effect = lower value. The procedure, abridged:
as §1

In test [4] the target is Nicotinamide N-methyltransferase (Homo sapiens) (UniProt P40261). To be noted: purified enzyme, MTase-Glo SAH luminescence; measured here: NNMT inhibition; at 40 µM; stronger effect = lower value. In short, it runs like this:
as §1

Test [5] deals with Phenylethanolamine N-methyltransferase (Homo sapiens) (UniProt P11086). Particulars: purified enzyme, MTase-Glo SAH luminescence; measured here: PNMT inhibition; at 40 µM; stronger effect = lower value. The procedure, abridged: as §1

Several values for one entry are separate records, joined by “and”; a condition that tells them apart may be missing. Identical values can stand only once. The list shows a part of the results. Shown are side measurements of this screen, not its main read-out; they come without a call.
On the % scale 0 is the no-effect control and ±100 the full control effect.

Turning to `CCc1cc2c(cc3n2CC(C)(C(=O)NC2CCCCC2)N(CCN(C)C2CCCCC2)C3=O)s1` (stereo not given), the activity change, negative = inhibition in test [1] is 2.99%; in test [2], 3.9%; in test [3], 3.02%; in test [4], 3.71%; in test [5], 2.76%.
In the same order, the values of `O=C(CCc1nnc2n(Cc3ccccc3Cl)c(=O)c3ccccc3n12)N1CCN(Cc2ccccc2)CC1` are -27.8%, 3.52%, 2.39%, -21.3% and -2.67%.
In the same order, the values of `O=c1[nH]c2ccccc2n1C1CCN(S(=O)(=O)c2ccc(-n3cnnn3)cc2)CC1` are 1.31%, 0%, 3.54%, 5.68% and -1.01%.
With `CCOC(=O)c1cc2n(n1)CC(C)(C(=O)NC1CCCCC1)N(c1ccc(C)c(C)c1)C2=O` (stereo not given), the activity change, negative = inhibition in test [1] is 6.32%; in test [2], 0.819%; in test [3], -2.98%; in test [4] it was 10.6%; in test [5], 5.8%.
As to `Cc1occc(=O)c1O[C@@H]1O[C@H](COC(=O)CC(C)(O)CC(=O)O)[C@@H](O)[C@H](O)[C@H]1O` (stereo not given in full), the activity change, negative = inhibition in test [1] was 2.92%; in test [2], -2.95%; in test [3] it was 7.61%; in test [4], -15.9%; in test [5] it was 4.16%.
In the same order, the values of `COc1ccc(C2=NOC3(CCN([S+](=O)([O-])c4cccc(C(F)(F)F)c4)C3)C2)cc1` (stereo not given) are -3.24%, -1.99%, -0.964%, -4.81% and -10.1%.
In the same order, the values of `COc1ccc(-c2nnc3n2CCN([S+](=O)([O-])c2c(C)noc2C)C3)cc1` are -6.03%, -6.89%, -2.82%, -11.2% and -9.24%.
With `COc1ccc(C2CC(c3ccccc3)=NN2c2ccc(S(N)(=O)=O)cc2)cc1` (stereo not given), the activity change, negative = inhibition was 5.17% in test [1]; -10.9% in test [2]; 6.06% in test [3]; -19.6% in test [4]; -7.12% in test [5].
For `CC1=CC(=O)CC(C)(C)C1/C=C/C(C)OC1OC(COC2OCC(O)C(O)C2O)C(O)C(O)C1O` (stereo not given), the activity change, negative = inhibition in test [1] was -2.54%; in test [2], -9.99%; in test [3] it was 6.13%; in test [4] it was -18.3%; in test [5], -0.205%.
As to `CC(C)Oc1ccc2c(NC(=O)CN3CCCC3=O)nn(Cc3ccccc3)c2c1`, the activity change, negative = inhibition in test [1] is -6.35%; in test [2], -7.86%; in test [3], -4.68%; in test [4], -18.2%; in test [5], -3.29%.
On the same counts, the results for `C[C@@]1(O)CCN(Cc2ccc(Br)o2)C[C@H]1N1CCCC1` are -8.27%, 0.025%, -0.853%, 0.699% and 5.35%.
On the same counts, the results for `COc1ccc(CNC(=O)c2cc3n(n2)CC(C)(C(=O)NC2CCCCCC2)N(C)C3=O)cc1OC` (stereo not given) are 3.66%, 4.6%, -0.258%, 4.08% and -0.493%.
In the same order, the values of `COc1ccc2c(c1)C(COCc1ccc(C(=O)O)cc1)=CC(C)(C)CO2` are -6.61%, -3.42%, -1.2%, -14.3% and -7.67%.
As for `Cc1ccccc1Cn1nc2n(CCC(C)C)c(=O)c3ccc(C(=O)NCC(C)C)cc3n2c1=O`, the activity change, negative = inhibition in test [1] was -7.01%; in test [2], 4.28%; in test [3] it was 0.483%; in test [4], 3.65%; in test [5], 1.62%.
On to `O=C(c1ccc2c(=O)nc3c(-c4ccccc4)n[nH]n3c2c1)N1CCN(c2ccccn2)CC1`, for which the activity change, negative = inhibition in test [1] was -1.69%; in test [2] it was 3.23%; in test [3] it was 0.354%; in test [4] it was -1.7%; in test [5], -0.954%.
Consider `CC1=C2C(=O)O[C@@H](c3ccoc3)[C@]2(C)CCC1`, for which the activity change, negative = inhibition in test [1] was -6.41% and -5.5%; in test [2] it was -16% and -0.316%; in test [3], 2.17% and 0.276%; in test [4], -27% and -16%; in test [5], -1.98% and -3.53%.
As to `COCCCNC(=O)CCc1nnc2n(Cc3ccc(C)cc3)c(=O)c3ccccc3n12`, the activity change, negative = inhibition in test [1] is -7.75%; in test [2], 4.17%; in test [3], -1.71%; in test [4], 7.42%; in test [5], -5.58%.
Regarding `COc1ccc(CN2CC[C@H](c3nc(C)no3)[C@H](NC(=O)C3CC3)C2)cc1`, the activity change, negative = inhibition in test [1] is -0.492%; in test [2], 1.84%; in test [3] it was 2.76%; in test [4] it was -6.19%; in test [5], -2.37%.
In the same order, the values of `COC(=O)[C@H]1[C@H]2C[C@@H]3c4[nH]c5cc(OC)ccc5c4CCN3C[C@H]2C[C@@H](OC(=O)/C=C/c2cc(OC)c(OC)c(OC)c2)[C@@H]1OC` are 0.095%, 9.06%, 2.98%, -25.4% and 3.53%.

The record behind these values is PubChem BioAssay AID1745853 (National Center for Advancing Translational Sciences (NCATS), 2022).
